Experimental data: the supplement of paper PMC6531468
The list shows a part of the results. Read counts after selection give these values, which scatter widely. Scores sum up all selected molecules that hold the word; the word was not tested alone.

Tests used:
Assay in all cases: 6-mer SELEX enrichment z-score vs GST control; IMP3 is the RNA-binding protein IGF2BP3; higher = more enriched by binding
IMP3 KH1-4 = conditions: construct: KH1-4 (164-579); SELEX round: R4
Experimental: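 SELEX-seq with GST-tagged IMP3 KH1-4 (Pro164-Lys579) and an N40 RNA pool, round 4. 6-mer z-score of sequence-tag enrichment normalised to the corresponding GST SELEX round; RNA k-mers written as DNA (T for U).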

IMP3 RRM1-2 = conditions: construct: RRM1-2 (1-163); SELEX round: R2
Sequence of IMP3 RRM1-2 (chain, as listed by the source): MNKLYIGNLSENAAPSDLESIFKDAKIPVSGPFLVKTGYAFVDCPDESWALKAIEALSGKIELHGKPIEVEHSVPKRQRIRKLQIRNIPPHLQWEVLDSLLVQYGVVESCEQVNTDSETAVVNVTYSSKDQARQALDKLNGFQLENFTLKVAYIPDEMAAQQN
Experimental: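 SELEX-seq with GST-tagged IMP3 RRM1-2 (Met1-Asn163) and an N40 RNA pool, round 2. 6-mer enrichment z-score normalised to GST SELEX. RNA written as DNA (T = U).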

IMP3 full-length = IMP3 full-length (UniProt O00425); conditions: construct: FL IMP3 (1-579); SELEX round: R4
Sequence of UniProt O00425 (O00425 whole entry): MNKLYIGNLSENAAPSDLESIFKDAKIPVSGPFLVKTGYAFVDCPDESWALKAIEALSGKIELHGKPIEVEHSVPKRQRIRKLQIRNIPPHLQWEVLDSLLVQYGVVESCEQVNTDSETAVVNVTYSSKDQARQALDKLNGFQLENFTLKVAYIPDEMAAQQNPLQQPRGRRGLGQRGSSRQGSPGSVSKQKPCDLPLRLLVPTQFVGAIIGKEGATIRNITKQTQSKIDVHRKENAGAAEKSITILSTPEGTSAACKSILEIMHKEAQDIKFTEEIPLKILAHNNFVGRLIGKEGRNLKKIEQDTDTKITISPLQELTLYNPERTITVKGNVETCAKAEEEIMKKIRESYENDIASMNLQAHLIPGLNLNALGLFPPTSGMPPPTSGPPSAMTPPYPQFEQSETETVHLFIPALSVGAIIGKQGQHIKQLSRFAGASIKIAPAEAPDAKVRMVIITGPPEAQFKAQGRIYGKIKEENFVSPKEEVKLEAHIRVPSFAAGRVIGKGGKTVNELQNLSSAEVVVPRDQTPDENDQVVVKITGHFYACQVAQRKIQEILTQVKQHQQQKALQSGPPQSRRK
Experimental: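 SELEX-seq with GST-tagged full-length IMP3 and an N40 RNA pool, round 4. Each 6-mer is scored as an enrichment z-score of sequence tags containing it, normalised to the matching GST SELEX round. RNA written as DNA (T = U).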

IMP3 KH1-2 = conditions: construct: KH1-2 (164-376); SELEX round: R4
Sequence of IMP3 KH1-2 (chain, as listed by the source): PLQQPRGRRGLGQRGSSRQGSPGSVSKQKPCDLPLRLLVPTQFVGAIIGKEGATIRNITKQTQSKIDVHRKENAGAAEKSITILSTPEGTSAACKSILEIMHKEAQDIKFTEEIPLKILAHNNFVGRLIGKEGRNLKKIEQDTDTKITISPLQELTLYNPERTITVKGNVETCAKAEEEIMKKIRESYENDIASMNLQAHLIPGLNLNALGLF
Experimental: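 SELEX-seq with GST-tagged IMP3 KH1-2 (Pro164-Phe376) and an N40 RNA pool, round 4 (stringent 300/600 mM KCl washes). 6-mer z-score of sequence-tag enrichment normalised to the corresponding GST SELEX round; RNA k-mers written as DNA (T for U).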

IMP3 KH3-4 = conditions: construct: KH3-4 (377-579); SELEX round: R4
Sequence of IMP3 KH3-4 (chain, as listed by the source): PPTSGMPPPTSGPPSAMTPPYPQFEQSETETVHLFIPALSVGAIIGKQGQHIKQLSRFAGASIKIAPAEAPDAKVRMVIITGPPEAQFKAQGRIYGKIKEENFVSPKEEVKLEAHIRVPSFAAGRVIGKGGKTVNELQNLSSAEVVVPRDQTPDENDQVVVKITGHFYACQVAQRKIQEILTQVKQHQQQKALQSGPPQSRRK
Experimental: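 SELEX-seq with GST-tagged IMP3 KH3-4 (Pro377-Lys579) and an N40 RNA pool, round 4. 6-mer z-score of sequence-tag enrichment normalised to the corresponding GST SELEX round; RNA k-mers written as DNA (T for U).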

Sequence of IMP3 KH1-4 (chain, as listed by the source): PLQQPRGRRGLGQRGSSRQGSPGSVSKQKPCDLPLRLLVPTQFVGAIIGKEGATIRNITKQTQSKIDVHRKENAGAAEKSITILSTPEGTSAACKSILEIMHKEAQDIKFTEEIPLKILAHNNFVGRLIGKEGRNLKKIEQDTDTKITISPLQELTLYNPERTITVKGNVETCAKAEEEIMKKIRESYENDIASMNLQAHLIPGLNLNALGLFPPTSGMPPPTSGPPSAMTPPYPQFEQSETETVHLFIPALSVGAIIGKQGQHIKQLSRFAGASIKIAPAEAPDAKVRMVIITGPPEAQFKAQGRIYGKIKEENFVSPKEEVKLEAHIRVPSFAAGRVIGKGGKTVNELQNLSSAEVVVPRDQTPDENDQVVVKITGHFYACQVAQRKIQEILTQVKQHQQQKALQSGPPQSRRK

Sequence	6-mer SELEX enrichment z-score (IMP3 KH1-4)	6-mer SELEX enrichment z-score (IMP3 RRM1-2)	6-mer SELEX enrichment z-score (IMP3 full-length)	6-mer SELEX enrichment z-score (IMP3 KH1-2)	6-mer SELEX enrichment z-score (IMP3 KH3-4)
ATTGCC	0.066	-0.233	-0.278	0.02	-0.194
GTTGCG	-0.425	0.296	-0.247	-0.419	-0.291
TGACAG	0.48	-0.358	0.25	0.397	0.314
ATAACC	0.049	-0.888	-0.74	0.292	-0.112
TACTCT	-0.359	0.21	-0.316	-0.228	-0.271
GTAAGC	-0.357	-0.11	-0.217	-0.331	-0.219
GGCGTT	-0.65	0.557	0.105	-0.482	-0.28
ATACTA	1.44	0.171	0.174	1.47	1.77
TTTACC	-0.225	-0.27	-0.588	-0.211	-0.354
CCCCTA	-0.296	-0.64	-0.749	-0.199	-0.812
AGCGAC	-1.51	-0.331	-0.3	-1.36	-1.45
GTGCCG	-0.492	-0.172	0.087	-0.398	-0.564
TCTATA	0.881	0.255	0.243	0.776	0.996
CTCAAC	-1.02	0.476	-0.24	-0.793	-1.28
GCTCAC	0.046	0.623	0.596	0.115	-0.226
GAGAGG	1.23	-0.635	0.4	1.1	1.12
AATACG	0.912	-1.04	-0.188	0.455	0.817
TTGGAG	-0.124	0.098	-0.091	-0.117	0.025
GACTTT	0.246	-0.115	-0.258	0.191	0.391
AGTCCG	0.338	-0.06	0.424	0.13	-0.232

Sequence	6-mer SELEX enrichment z-score (IMP3 KH1-4)	6-mer SELEX enrichment z-score (IMP3 RRM1-2)	6-mer SELEX enrichment z-score (IMP3 full-length)	6-mer SELEX enrichment z-score (IMP3 KH1-2)	6-mer SELEX enrichment z-score (IMP3 KH3-4)
GAACAC	0.457	2.48	1.12	0.326	-0.077
GCCCGA	-2.31	-1.05	-1.49	-2.04	-2.31
TACATC	0.889	1.01	1.32	0.937	0.338
GGAGAC	0.025	-0.819	-0.225	0.062	-0.089
TTGCTT	0.298	0.459	0.022	0.309	0.39
CTGATT	0.57	-0.007	-0.111	0.47	0.5
CGATAA	0.069	-1.23	-0.698	0.182	0.517
CAAAAT	-0.032	-0.932	-0.832	0.105	0.385
TATATG	1.5	-0.053	0.238	1.12	1.86
CCTCCG	-0.434	-0.41	-0.287	-0.162	-0.99
GCATCT	0.54	0.671	1.34	0.207	0.066
CTGGCA	0.54	0.45	1.03	0.378	0.257
TTCGGG	-0.614	0.332	-0.134	-0.476	-0.297
TCCCCG	-0.322	-0.535	-0.31	-0.246	-1.01
CTTTAA	0.743	-0.259	-0.296	0.735	1.04
GCTACA	0.542	0.648	0.804	0.712	0.454
GCCATT	0.649	0.293	0.63	0.553	0.52
TCAGTC	1.03	0.825	1.18	0.729	0.483
TAACAA	1.15	0.099	0.059	1.42	2.02
AGTACA	0.284	0.335	0.655	0.145	0.095

Sequence	6-mer SELEX enrichment z-score (IMP3 KH1-4)	6-mer SELEX enrichment z-score (IMP3 RRM1-2)	6-mer SELEX enrichment z-score (IMP3 full-length)	6-mer SELEX enrichment z-score (IMP3 KH1-2)	6-mer SELEX enrichment z-score (IMP3 KH3-4)
CCTCTT	0.11	0.281	-0.191	0.118	-0.058
ATAGAC	0.768	-0.485	0.046	0.77	0.984
GTACGG	0.431	0.022	0.671	0.261	0.388
CCTTCG	-0.583	0.003	-0.461	-0.528	-0.756
TACCGC	0.044	-0.315	-0.063	0.193	-0.429
TAGATC	0.313	0.113	0.117	0.239	0.399
AAAAAA	-1.73	-2.85	-3.6	-1.28	0.369
ATCCAT	0.481	0.646	0.433	0.49	0.052
GACCCA	-2.15	-1.03	-1.64	-2.01	-2.68
GTTGCT	-0.057	0.4	-0.048	-0.024	0.04
ACTTAA	0.793	-0.517	-0.425	0.709	1.13
AAGTAG	-0.131	-0.204	-0.462	-0.342	0.09
GAAGCA	-0.084	-0.135	0.166	-0.165	-0.12
CATGAC	0.769	0.97	0.888	0.673	0.295
TGACGA	-0.801	-1.11	-0.883	-0.841	-0.703
GACTCG	-1.15	-0.225	-0.523	-0.98	-0.966
AAGTCC	-0.05	-0.581	-0.368	-0.333	-0.474
TCTAAC	0.01	-0.091	-0.398	-0.043	-0.163
GGACTC	-0.754	-0.155	-0.249	-0.636	-0.698
TGTGGT	-0.041	0.467	-0.069	-0.036	0.14
